Results are given in words; binding and its absence hold for the method and conditions named. For some assays here: Binding seen in cells or lysates may run through a third protein. Some results given as binding are weak or reduced against the parent protein; the word gives no strength. Where a sequence is shown, tags or fusion partners need not be part of it. One block for each binder: values may come before it.
Legend:
[1] = target: T1, KIN10-YFP (Arabidopsis thaliana) (UniProt Q38997); experiment: co-IP; seedlings expressing p35S::KIN10-YFP and p35S::SPCH-myc, or SPCH-myc only, grown with 1% sucrose for 5 days; lysate on GFP-Trap agarose beads, 4 °C, 1 h; washed with 300 mM NaCl, 1% Triton X-100; blots with anti-YFP/GFP and anti-myc
T1 sequence: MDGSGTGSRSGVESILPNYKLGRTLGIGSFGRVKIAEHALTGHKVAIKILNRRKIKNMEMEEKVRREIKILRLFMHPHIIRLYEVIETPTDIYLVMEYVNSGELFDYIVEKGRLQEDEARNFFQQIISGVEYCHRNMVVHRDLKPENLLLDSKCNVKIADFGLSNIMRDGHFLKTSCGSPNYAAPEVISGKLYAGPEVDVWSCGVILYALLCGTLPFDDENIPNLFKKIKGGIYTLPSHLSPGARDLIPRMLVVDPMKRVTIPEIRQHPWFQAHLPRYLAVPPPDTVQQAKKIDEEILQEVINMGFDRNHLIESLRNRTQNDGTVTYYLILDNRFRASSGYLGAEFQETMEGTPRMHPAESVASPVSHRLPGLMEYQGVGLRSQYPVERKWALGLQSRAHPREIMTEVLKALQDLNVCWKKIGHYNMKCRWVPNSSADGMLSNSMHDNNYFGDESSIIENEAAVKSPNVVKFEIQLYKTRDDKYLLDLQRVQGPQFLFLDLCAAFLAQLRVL

[2] = target: T2, FAMA (yeast two-hybrid fusion) (Arabidopsis thaliana) (UniProt Q56YJ8); experiment: two-hybrid; yeast two-hybrid with GAL4BD and GAL4AD fusions; which protein on which domain not stated
T2 sequence: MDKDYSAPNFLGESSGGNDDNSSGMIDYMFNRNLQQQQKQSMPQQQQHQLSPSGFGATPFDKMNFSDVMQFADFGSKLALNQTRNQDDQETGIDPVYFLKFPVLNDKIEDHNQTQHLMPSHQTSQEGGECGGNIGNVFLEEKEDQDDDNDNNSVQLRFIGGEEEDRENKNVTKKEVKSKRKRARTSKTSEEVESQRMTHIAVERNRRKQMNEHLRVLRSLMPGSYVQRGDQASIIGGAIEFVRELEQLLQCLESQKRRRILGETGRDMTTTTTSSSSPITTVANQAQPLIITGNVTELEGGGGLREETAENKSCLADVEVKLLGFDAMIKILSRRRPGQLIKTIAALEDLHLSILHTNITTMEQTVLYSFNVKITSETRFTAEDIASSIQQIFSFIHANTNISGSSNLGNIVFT

[3] = target: T3, MUTE (yeast two-hybrid fusion) (Arabidopsis thaliana) (UniProt Q9M8K6); experiment: as above
T3 sequence: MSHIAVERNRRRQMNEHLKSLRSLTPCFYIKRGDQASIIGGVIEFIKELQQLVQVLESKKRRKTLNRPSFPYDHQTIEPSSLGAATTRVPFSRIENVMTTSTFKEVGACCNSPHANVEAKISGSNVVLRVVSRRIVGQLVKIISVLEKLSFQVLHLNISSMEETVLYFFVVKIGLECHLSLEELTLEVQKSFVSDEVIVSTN

[4] = target: T4, … (yeast two-hybrid fusion) (Arabidopsis thaliana) (UniProt Q700C7); experiment: as above
T4 sequence: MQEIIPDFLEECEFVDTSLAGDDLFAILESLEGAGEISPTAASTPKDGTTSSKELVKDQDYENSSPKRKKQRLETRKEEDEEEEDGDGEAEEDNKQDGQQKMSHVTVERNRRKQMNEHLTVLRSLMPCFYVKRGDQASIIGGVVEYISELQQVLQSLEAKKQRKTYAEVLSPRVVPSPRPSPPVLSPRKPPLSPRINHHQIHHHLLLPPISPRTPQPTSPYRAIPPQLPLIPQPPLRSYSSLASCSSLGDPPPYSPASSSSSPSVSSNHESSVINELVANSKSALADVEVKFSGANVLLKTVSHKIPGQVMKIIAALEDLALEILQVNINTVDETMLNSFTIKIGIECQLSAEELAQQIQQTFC

[5] = target: T5, cYFP-SPCH (rBiFC) (Arabidopsis thaliana) (UniProt Q700C7); experiment: split reporter; ratiometric BiFC (pBiFCt-2in1-NN, RFP as internal reference) in tobacco (Nicotiana benthamiana) leaves, 36 h after infiltration; YFP signal in the nucleus
T5 sequence: T4 sequence

binding [1]: binds
B1: glutathione S-transferase (GST)-SPCH (natural protein, Arabidopsis thaliana, UniProt Q700C7 1-364, looked up)
chain: T4 sequence
notes: full-length cDNA without stop codon in pDEST15 (N-GST); source: bacteria, purified (glutathione beads); not shown: GST, N-terminal, kept

binding [2]: no binding
binding [3]: no binding
binding [4]: binds
B2: KIN10 (yeast two-hybrid fusion) (enzyme, UniProt Q38997-2 1-512)
chain: T1 sequence

binding [5]: binds
B3: nYFP-KIN10 (rBiFC) (enzyme, UniProt Q38997-2 1-512)
chain: T1 sequence
